One assay concerns the target T1, Shh.
T1 construct: also called Sonic hedgehog; not shown: alkaline phosphatase tag, if the probe was ShhN-AP
Put plainly: column 'Shh Binding' beside the construct diagram; assay not given in the legend.

A further assay deals with T2, PTCH1-GFP (mouse, UniProt Q61115 1-1434).
T2 construct: whole, on cells; also called pEGFP-mPtch1; mPtch1; not shown: GFP (EGFP) tag
T2 sequence (looked up): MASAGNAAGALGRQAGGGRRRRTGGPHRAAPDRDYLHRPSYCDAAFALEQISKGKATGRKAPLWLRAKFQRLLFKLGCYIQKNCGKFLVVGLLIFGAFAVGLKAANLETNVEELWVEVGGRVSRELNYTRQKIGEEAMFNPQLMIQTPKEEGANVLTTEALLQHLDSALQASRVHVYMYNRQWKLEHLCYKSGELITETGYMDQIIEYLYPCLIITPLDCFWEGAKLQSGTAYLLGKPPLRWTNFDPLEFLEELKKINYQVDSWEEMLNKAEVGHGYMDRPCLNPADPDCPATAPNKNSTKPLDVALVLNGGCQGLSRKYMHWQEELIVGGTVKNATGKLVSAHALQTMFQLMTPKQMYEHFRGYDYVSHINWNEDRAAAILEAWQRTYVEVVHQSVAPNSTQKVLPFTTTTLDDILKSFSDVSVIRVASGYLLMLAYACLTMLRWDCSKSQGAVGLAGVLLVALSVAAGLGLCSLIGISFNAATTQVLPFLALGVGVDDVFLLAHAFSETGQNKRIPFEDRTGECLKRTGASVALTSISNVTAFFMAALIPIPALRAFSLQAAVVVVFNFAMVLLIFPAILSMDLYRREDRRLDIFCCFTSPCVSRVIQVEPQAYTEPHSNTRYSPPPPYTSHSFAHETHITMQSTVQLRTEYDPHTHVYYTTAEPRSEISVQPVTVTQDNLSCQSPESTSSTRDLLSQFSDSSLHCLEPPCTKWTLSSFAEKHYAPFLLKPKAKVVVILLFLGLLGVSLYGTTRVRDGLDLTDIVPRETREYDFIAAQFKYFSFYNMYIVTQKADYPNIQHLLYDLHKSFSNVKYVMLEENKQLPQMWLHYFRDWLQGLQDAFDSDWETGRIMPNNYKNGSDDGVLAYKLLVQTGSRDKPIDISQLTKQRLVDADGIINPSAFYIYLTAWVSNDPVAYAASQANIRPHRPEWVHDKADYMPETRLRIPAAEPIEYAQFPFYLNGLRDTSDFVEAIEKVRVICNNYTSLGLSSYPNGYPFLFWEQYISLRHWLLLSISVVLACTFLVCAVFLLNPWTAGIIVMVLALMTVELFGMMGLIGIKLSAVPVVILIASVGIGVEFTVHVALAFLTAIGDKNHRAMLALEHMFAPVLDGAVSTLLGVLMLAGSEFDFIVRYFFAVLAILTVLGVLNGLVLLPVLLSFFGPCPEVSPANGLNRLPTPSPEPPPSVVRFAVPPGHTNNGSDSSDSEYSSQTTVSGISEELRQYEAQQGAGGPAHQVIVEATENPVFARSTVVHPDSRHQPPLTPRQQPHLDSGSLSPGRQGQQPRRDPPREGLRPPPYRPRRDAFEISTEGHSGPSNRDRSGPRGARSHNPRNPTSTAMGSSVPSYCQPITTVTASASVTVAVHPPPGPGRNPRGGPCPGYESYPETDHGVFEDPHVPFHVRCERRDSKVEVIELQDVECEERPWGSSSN
Put plainly: cell surface binding: conditioned medium with the Fc protein on COS7 cells expressing PTCH1-GFP, HRP-conjugated anti-Fc antibody, peroxidase activity. As to the method: FIG. 5B: BOC interacts with PTCH1 in a constitutive manner. COS7 cells expressing PTCH1-HA and BOC-Flag were treated with ShhN and subjected to anti-HA IP and either anti-Flag or anti-HA IB. FIG. 5C: The PTCH1 L2 region is not required for the BOC-PTCH1 interaction. Anti-HA IP was performed on COS7 lysates expressing Boc-Flag and PTCH1-HA or PTCH1ΔL2-followed by anti-Flag or anti-HA IB. FIG. 5D: The BOC cytoplasmic tail is not involved in the BOC-PTCH1 interaction. COS7 cells expressing PTCH1-HA and BOC-GFP or BOCΔcyto-GFP were subjected to anti-GFP IP and either anti-HA or anti-GFP IB. FIGS. 5E and F: PTCH1 forms receptor complexes with either BOC or GAS1 but not both. BOC-Flag was co-transfected with GAS1 with or without PTCH1-GFP in COS7 cells. FIG. 5E: Lysates were IP with anti-Flag antibodies, followed by anti-GAS1 or anti-GFP IB. FIG. 5F: Lysates were first immunoprecipated (IP #1) with anti-GAS1 antibodies. Supernatants from IP#1 were subjected to a second immunoprecipitation (IP #2) with anti-Flag antibodies. Both anti-GAS1 (IP #1) and anti-Flag (IP #2) immunoprecipitates were IB with anti-GAS1, anti-Flag and anti-GFP antibodies. See FIG. 11 for a schematic of this experiment. In FIGs. A to F, protein expression inputs were verified by IB with the indicated antibodies. ns, non-specific. […] Bound proteins were labeled with HRP-conjugated anti-Fc antibody and peroxidase activity measured; […]

T1 sequence (chain, as listed by the source limits assumed): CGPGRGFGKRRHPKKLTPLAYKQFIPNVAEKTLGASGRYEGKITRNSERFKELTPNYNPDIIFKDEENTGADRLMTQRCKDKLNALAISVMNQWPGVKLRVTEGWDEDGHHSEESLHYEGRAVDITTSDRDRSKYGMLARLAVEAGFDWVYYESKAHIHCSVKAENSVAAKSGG

B1: FNIIIab-Fc (Fc fusion)
chain: SVGPEDEGVYQCMAENAVGSAHAVVQLRTARPDTTLRPGRDTKPIAATPPMPPSRPSRPDQMLREQPGLVKPPTSSVQPTSLKCPGEEQVAPAEAPIILSSPRTSKTDSYELVWRPRHEGSSRTPILYYVVKHRKVTNSSDDWTISGIPANQHRLTLTRLDPGSLYEVEMAAYNCAGEGQTAMVTFRTGRRPKPEIVASKEQQIQRDDPGASLQSSSQPDHGRLSPPEAPDRPTISTASETSVYVTWIPRGNGGFPIQSFRVEYKKLKKVGDWILATSAIPPSRLSVEITGLEKGISYKFRVRALNMLGESEPSAPSRPYVVSGYSGGRKPNSADIHHTGGRSSMHL[human IgG1 Fc cut from this listing]
notes: also called BOC FNIII(ab); FNIIIab domains of BOC fused to Fc
Consider B1, for which the binding result with Shh is given as “no binding”.

B2: Boc IgCAM-Fc (Fc fusion)
Fc fusion chain: DLNEVPQVTVQPMSTVQKLGGTVILGCVVEPPWMNVTWRFNGKELNGSDDALGVFITRGTLVIAALNNHTVGRYQCVARMPAGAVASVPATVTLANLQDFKLDVQHVIEVDEGNTAVIACHLPESHPKAQVRYSVKQEWLEASRDNYLIMPSGNLQIVNASQEDEGMYKCAAYNPVTQEVKTSGSGDRLRVRRSTAEAARIIYPLEAQTVIVTKGQSLILECVASGIPPPRVTWAKDGSSIAAYNKTRFLLSNLLIDTTSEEDSGTYRCMASNGVGDPGAAVILYNVQVFEPPEVTVELSQLVIPWGQSAKLTCEVRGNPPPSVLWLRNAVPLTSSQRLRLSRRALRVVSVGPEDEGVYQCMAENAVGSAHAVVQLRTARPDTTLRPGSITLAAARSSMHL[human IgG1 Fc cut from this listing]
notes: also called IgCAM domains of BOC fused to Fc
B2: the binding result with PTCH1-GFP and with Shh was “no binding” each time.

(Values after US20140079713A1 (INSTITUT DE RECHERCHES CLINIQUES DE MONTREAL, published 2014).)
